Experimental data published in publication PMC4336329 (PLoS ONE, 2015).
Hit rate of the full screen: of about 310,000 compounds, about 2,200 (0.71%) showed an effect of 50% or more. Effects have a minus sign here. Some of the results follow.

Target: human ether-à-go-go-related gene (hERG) potassium channel (human, UniProt Q12809)
Experiment: primary screen, population patch clamp on CHO cells stably expressing hERG

human ether-à-go-go-related gene (hERG) potassium channel, sequence (Q12809 whole entry, looked up): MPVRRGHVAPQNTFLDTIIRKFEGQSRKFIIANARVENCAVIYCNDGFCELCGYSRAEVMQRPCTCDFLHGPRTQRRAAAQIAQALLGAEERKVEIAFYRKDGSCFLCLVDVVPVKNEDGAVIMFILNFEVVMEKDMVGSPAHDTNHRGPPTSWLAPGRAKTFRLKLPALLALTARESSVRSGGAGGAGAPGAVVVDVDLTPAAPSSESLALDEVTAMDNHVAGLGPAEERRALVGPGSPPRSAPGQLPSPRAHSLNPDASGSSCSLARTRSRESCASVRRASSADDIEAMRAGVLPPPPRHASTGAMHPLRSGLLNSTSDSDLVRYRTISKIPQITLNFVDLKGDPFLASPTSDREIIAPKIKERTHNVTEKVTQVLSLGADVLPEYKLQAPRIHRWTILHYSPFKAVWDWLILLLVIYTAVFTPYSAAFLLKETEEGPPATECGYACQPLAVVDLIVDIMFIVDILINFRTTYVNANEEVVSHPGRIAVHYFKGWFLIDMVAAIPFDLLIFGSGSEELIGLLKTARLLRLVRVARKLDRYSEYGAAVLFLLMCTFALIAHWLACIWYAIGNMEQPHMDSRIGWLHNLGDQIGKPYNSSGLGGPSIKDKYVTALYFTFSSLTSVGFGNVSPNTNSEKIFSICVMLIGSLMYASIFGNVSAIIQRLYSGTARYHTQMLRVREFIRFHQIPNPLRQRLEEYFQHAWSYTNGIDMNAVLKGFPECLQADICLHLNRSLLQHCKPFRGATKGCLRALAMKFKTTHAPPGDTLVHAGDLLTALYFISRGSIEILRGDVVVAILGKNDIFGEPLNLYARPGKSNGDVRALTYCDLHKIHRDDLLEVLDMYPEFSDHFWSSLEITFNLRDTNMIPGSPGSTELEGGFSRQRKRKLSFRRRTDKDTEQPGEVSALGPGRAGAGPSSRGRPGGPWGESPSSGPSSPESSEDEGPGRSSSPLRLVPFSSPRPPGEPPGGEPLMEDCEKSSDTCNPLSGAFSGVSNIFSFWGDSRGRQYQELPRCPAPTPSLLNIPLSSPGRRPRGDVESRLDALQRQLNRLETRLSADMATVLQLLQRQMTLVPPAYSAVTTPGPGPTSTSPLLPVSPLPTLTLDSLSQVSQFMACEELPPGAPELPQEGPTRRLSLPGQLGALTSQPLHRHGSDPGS

SMILES | hERG current change (%, negative = inhibition) at 1uM
Cc1ccc(NC(=O)Cn2c(=S)[nH]c3ccccc32)cc1 | 14.3%
O=C(NC1CC2CCC(C1)N2C(=O)NCc1ccccc1)NC12CC3CC(CC(C3)C1)C2 (stereo not shown) | 18.6%
O=C(Nc1cc(C(F)(F)F)ccc1N1CCCC1)C1CCCO1 (stereo not shown) | 10.8%
CCCc1c(OCCCOc2ccc(OCC(=O)O)cc2)ccc(C(C)=O)c1O | 18.4%
O=C(CC1(O)C(=O)Nc2ccccc21)c1cccc(-n2cccc2)c1 (stereo not shown) | 14.8%
COC(=O)c1ccc(S(=O)(=O)N2CCOCC2)o1 | 18.3%
COc1ccc(CCCNC(=O)C2CCC(=O)N(Cc3ccccc3F)C2)cc1 (stereo not shown) | 3.51%
O=c1cc[nH]c2ccc([N+](=O)[O-])cc12 | 4.14%
CC(C)N1CC2(c3ccccc3)CN(C(C)C)CC(c3ccccc3)(C1)C2=O | -21.5%
C/C=C/CSc1nc2c(c(=O)[nH]c(=O)n2C)n1C(C)C | 2.13%
O=C(Nc1ccccc1C(=O)Nc1ccccn1)c1cccc([N+](=O)[O-])c1 | -1.21%
COc1cccc(-n2c(SCc3cc(=O)oc4cc(O)c(O)cc34)nc3ccccc3c2=O)c1 | -3.79%
Cc1ccc(/C=N\Nc2cn[nH]c(=O)c2Cl)cc1 | -2.76%
COc1ccc(CC(=O)Nc2ccc(S(=O)(=O)N3CCN(C)CC3)cc2)cc1 | 10.7%
COc1cc(C2C(C#N)=C(N)Oc3cc(N)ccc32)cc(OC)c1OC (stereo not shown) | 12.1%
CCn1c(CSc2nc(C)cc(C)n2)nnc1SCC(=O)Nc1nc(-c2ccccc2)cs1 | -13.4%
O=C(Nc1ccccc1C(=O)OCC(=O)N1CCc2ccccc2C1)c1ccco1 | 1.03%
COc1ccc(C2NC(=S)N3C(c4ccc(OC)cc4)NC(=S)N23)cc1 (stereo not shown) | 11.2%
CCCCn1c(=O)[nH]c(=O)c2c1nc(-c1cc3c(cc1Br)OCO3)n2C | 8.18%
O=C(c1nn2c(C(F)(F)F)cc(-c3ccc(F)cc3)nc2c1Cl)N1CCOCC1 | 3.18%
Cc1ccccc1C(=O)Nc1cccc(C(=O)N/N=C/c2ccc3c(c2)OCO3)c1 | 7.27%
Cc1occc1-c1nnc(SCC(=O)NC2CC2)n1C(C)C | 19.1%

SMILES | hERG current change (%, negative = inhibition) at 1uM
COc1cccc(CNC(=O)CCc2nnc(C3CCCCC3)o2)c1 | 3.18%
N/C(=N\OC(=O)c1cccc([N+](=O)[O-])c1)c1ccccn1 | 13.4%
CC(=O)Nc1sc2c(c1C#N)CCC2 | 9.2%
CCOc1ccc(/C=C/C(=O)c2ccccc2)cc1OC | 9%
CCOc1ccccc1NC(=O)N1CCCC(c2nc(-c3ccc(C)o3)no2)C1 (stereo not shown) | -10.7%
COc1cc2c(cc1NC(=O)c1cccc([N+](=O)[O-])c1)oc1ccccc12 | 1.58%
CN(C)c1ccc(NC(=S)NC(=O)/C=C/c2ccco2)cc1 | 11.9%
CC(=O)c1nc(N2C(=O)CC(Cc3ccccc3)C2=O)sc1C (stereo not shown) | -1.13%
O=C(N/N=C/c1c(F)c(F)c(F)c(F)c1F)c1ccc(Cn2cc(Br)cn2)o1 | 1.3%
CCCCn1c(N)c(N(CC)C(=O)c2ccc(Cl)c([N+](=O)[O-])c2)c(=O)[nH]c1=O | 15.7%
CCOc1ccc(NC(=O)c2ccc3c(SCC(=O)O)c4c(nc3c2)CCCC4)cc1 | 11.6%
Cc1ccccc1C(=O)Oc1ccccc1N1C(=O)C2CC=CCC2C1=O (stereo not shown) | 4.5%
COc1ccc(-c2nnn(Cc3ccccc3)n2)cc1OC | 13.8%
Cc1ccc(C2CN(C)CC2C(=O)c2ccc(F)cc2)cc1 (stereo not shown) | -2.34%
CCCCN1C=C(C(=O)OC)C(c2ccccc2Cl)C(C(=O)OC)=C1 | -10.2%
COC(=O)c1[nH]c2c(c1C)C(=O)CC(c1cccc(OC)c1)C2 (stereo not shown) | -4.82%
CCOC(=O)N1C2=NC(C(=O)OC)=C(C(=O)OC)[C@@H]3Nc4ccccc4[C@]23C[C@H]1C(=O)OC | 9.36%
COc1cc2c(cc1OC)CN(C(=O)c1ccc3nc[nH]c3c1)CC2 | -5.84%
CCOC(=O)c1cn2nc(Oc3ccc(OC)cc3)ccc2n1 | 14.2%
COc1ccc(/C=C/c2cc[n+](C(=O)Cc3ccccc3)cc2)cc1.[Cl-] | -9.08%
COc1cccc(/C=N/NC(N)=S)c1OS(=O)(=O)c1ccccc1 | 8.37%
CCCCN(C1CCS(=O)(=O)C1)S(=O)(=O)c1ccc(C(C)C)cc1 (stereo not shown) | 9.29%

SMILES | hERG current change (%, negative = inhibition) at 1uM
COc1ccc2c(c1)C(=O)Cc1ccccc1O2 | 12%
Cc1c(NC(=S)N/N=C/c2ccc(Br)cc2)c(=O)n(-c2ccccc2)n1C | 14.6%
CCCCNC(=O)[C@H]1C[C@H]1[C@@H](O)[C@H](CO)NC(=O)[C@H](COCc1ccccc1)NC(=O)OC(C)(C)C | 17.7%
Cc1cc(C)c(OCC(=O)OCCNC(=O)c2cccnc2)c(C)c1.Cl | 7.13%
COc1ccc(C)cc1Nc1c2c(nc3ccccc13)CCC2 | -3.07%
CCN(CC(=O)Nc1c(F)cccc1F)C(=O)C1CCN(C(=O)Nc2ccccc2)CC1 | 6.63%
CSc1ccc(NC(=O)C(C)N2CCN(C)CC2)cc1.O=C(O)C(=O)O (stereo not shown) | 7.99%
CCC(CCC(=O)Nc1cccc([N+](=O)[O-])c1)C(=O)O (stereo not shown) | 9.87%
O=C(CN(C(=O)Cn1nnc(-c2cccs2)n1)c1ccc2c(c1)OCCO2)NC1CCCCC1 | 8.84%
COc1cc(C(CC(=O)Nc2ccc(Cl)cn2)N2Cc3ccccc3C2=O)cc(OC)c1OC (stereo not shown) | -41.3%
Cn1nc(C(=O)Nc2ccc(S(=O)(=O)N3CCCCC3)cc2)ccc1=O | 1.27%
CCOc1cc(C#N)ccc1OCC(=O)N1CCN(C(=O)c2cccs2)CC1 | -16.1%
CC(CN1CCOCC1)OC(=O)Cc1ccc(Cl)cc1.Cl (stereo not shown) | 8.59%
COC(=O)c1ccc(NC(=O)CSc2nc3[nH]ncc3c(=O)[nH]2)cc1 | 17.5%
O=C(c1ccc(F)cc1)N1CCCC(C(=O)N2CCCCC2)C1 (stereo not shown) | 13.5%
CC1=C(C(=O)OC(C)C)C(c2ccsc2)NC(=O)N1C (stereo not shown) | 17.1%
CCOC(=O)Cn1nc(C)n(-c2ccc(C(C)(C)C)cc2)c1=O | -1.17%
Cc1nnc(SCC(=O)Nc2ccccc2)c2ccccc12 | 13.8%
Clc1cccc(Nc2nc(-c3ccncc3)cs2)c1 | 13.3%
O=C1Nc2ccccc2N(O)N1c1cc(-c2ccccc2Cl)no1 | 6.52%
O=C(O)CC1Sc2nc3ccccc3n2C1=O (stereo not shown) | 0.0821%
CN1CCN(CCNC(=O)c2ccc3nc(-c4ccc(F)cc4)c(-c4ccc(F)cc4)nc3c2)CC1 | 4.3%

SMILES | hERG current change (%, negative = inhibition) at 1uM
N#Cc1nc(Cc2cccc3ccccc23)oc1N1CCCCC1 | 5.23%
N#CC1(NC(=O)COc2ccc3oc4ccccc4c3c2)CCCCC1 | 11.8%
O=C(CCCN1C(=O)/C(=C/c2cccs2)SC1=S)Nc1ccccc1O | 8.37%
CC(C)CCNC(=O)COc1ccc2c3c(c(=O)oc2c1)CCC3 | 7.29%
O=C(NCCN1CCOCC1)c1cc([N+](=O)[O-])cc([N+](=O)[O-])c1 | 12.5%
O=C(O)c1ccc2cccc(O)c2n1 | 14.3%
COc1ccc(CCNC(=S)NNC(=O)c2c(Br)c(C)nn2C)cc1OC | 14%
CS(=O)(=O)c1ccc2nc(NC(=O)Oc3ccccc3)sc2c1 | 11%
CCOC(=O)C1CCN(C(=O)c2ccc3nc(-c4ccc(OC)cc4)c(-c4ccc(OC)cc4)nc3c2)CC1 | 14.3%
COc1cccc(CC(=O)OCC(=O)NC2CCCC2)c1 | 8.81%
COC(=O)Nc1nc2ccc(C(=O)c3ccc(F)cc3)cc2[nH]1 | 13.7%
COc1ccc(CNC(=O)c2ccccc2SCC(=O)N2CCCC2)cc1OC | 11.4%
CC(=O)c1ccc(NC(=O)CN(c2c(C)cccc2C)S(C)(=O)=O)cc1 | 14.4%
CCOc1ccc(S(=O)(=O)N2c3ccccc3CC2C)cc1 (stereo not shown) | 9.93%
O=C(Nc1ccccc1)C1=C[C@@H](C2CC2)C[C@@H](OCc2ccc(CO)cc2)O1 | 8.92%
CSc1nc(N2CCN(c3ccccc3Cl)CC2)c2ccccc2n1 | 11.6%
CC(=O)N1C2CCCCC2S[C@H]2CCCCC21 (stereo partly shown) | 14.8%
Cc1cc(Br)ccc1SCC(=O)NNC(=O)c1ccco1 | 8.81%
Cc1ccc(OCC(=O)NCc2ccccn2)c(Br)c1 | 4.5%
CCOC(=O)N1CCN(C(=O)COc2ccc3c(c2)C(=O)CC(C)(C)O3)CC1 | 12.2%
COc1cccc(-c2nc(CS(=O)CC(=O)NCc3ccccc3)c(C)o2)c1 (stereo not shown) | 10.8%
O=C(CN1CCOCC1)NCc1ccccc1 | 17.4%
